Out of some 310,000 compounds screened, about 2,200 (0.71%) showed an effect of 50% or more. Effects have a minus sign here. This is one part of the list.
Target: human ether-à-go-go-related gene (hERG) potassium channel (human, UniProt Q12809)
Test: primary screen, population patch clamp on CHO cells stably expressing hERG

Sequence of human ether-à-go-go-related gene (hERG) potassium channel (Q12809 whole entry, looked up): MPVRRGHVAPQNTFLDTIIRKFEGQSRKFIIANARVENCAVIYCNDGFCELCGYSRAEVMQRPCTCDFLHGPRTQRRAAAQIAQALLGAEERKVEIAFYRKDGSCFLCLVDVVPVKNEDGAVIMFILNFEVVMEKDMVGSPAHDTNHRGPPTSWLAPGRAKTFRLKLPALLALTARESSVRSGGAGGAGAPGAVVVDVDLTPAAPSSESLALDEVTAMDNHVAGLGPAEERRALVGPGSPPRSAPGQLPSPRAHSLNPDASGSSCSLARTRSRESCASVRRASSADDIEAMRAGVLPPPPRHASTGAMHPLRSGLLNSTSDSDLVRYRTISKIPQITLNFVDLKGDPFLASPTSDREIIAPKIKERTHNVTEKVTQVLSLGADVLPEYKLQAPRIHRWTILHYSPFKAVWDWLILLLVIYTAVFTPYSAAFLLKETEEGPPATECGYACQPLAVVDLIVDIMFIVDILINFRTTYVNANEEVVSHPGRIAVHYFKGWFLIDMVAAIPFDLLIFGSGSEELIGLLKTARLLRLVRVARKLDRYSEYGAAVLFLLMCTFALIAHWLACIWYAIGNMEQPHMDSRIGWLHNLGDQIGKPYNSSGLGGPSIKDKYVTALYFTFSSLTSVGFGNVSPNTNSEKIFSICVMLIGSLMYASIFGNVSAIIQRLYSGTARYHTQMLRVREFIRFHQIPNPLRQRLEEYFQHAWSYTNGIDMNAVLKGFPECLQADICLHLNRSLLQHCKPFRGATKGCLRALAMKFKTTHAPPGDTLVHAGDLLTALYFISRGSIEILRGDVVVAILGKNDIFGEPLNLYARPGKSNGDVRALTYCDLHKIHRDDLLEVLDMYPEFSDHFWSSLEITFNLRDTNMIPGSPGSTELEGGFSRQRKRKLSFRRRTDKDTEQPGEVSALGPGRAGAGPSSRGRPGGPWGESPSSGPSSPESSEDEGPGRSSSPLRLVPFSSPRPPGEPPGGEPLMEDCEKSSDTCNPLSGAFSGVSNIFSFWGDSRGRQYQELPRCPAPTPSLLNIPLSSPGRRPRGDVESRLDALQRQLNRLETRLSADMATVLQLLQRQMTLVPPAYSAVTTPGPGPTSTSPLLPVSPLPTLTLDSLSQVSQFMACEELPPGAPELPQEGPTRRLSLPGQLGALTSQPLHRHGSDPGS

Compared with `CCOC(=O)N1CCN(C(=O)C2CCC(=O)N(CCCN3CCCC3=O)C2)CC1` (centres unmarked), `Cn1c2c(c(=O)n(C)c1=O)CN(CCCN1CCOCC1)CN2` is lower in “hERG current change (%, negative = inhibition) at 1uM” value: 13% for the first, 0.514% for the second.

First: CCN(Cc1nc2cc(OC)c(OC)cc2c(=O)[nH]1)C(=O)c1ccc(S(=O)(=O)N(C)C)cc1
Second: CN(C)S(=O)(=O)c1ccc(C(=O)OCc2ccc(C#N)cc2)cc1
The “hERG current change (%, negative = inhibition) at 1uM” value of the first is higher: 6.17% for the first, 1.99% for the second.

Compared with `CC(C)NC(=O)c1ccc(COCC(F)(F)F)cc1`, `Nc1ccc(S(=O)C(F)(F)F)cc1` (centres unmarked) is lower in “hERG current change (%, negative = inhibition) at 1uM” value: 18.1% for the first, 11.1% for the second.

Going from `Cc1ccc(-n2ncc3c(=O)n(CC(=O)OCc4ccccc4)cnc32)cc1` to `CCOC(=O)N1CCc2c(sc3c2c(=O)n(Cc2ccccc2)c(=O)n3Cc2ccc(C)cc2)C1`, the “hERG current change (%, negative = inhibition) at 1uM” value rises from -2.35% to 17.8%.

First: Cc1cc(C)c(NC(=O)CN2C(=O)CC(C)S(=O)(=O)c3ccccc32)c(C)c1 (centres unmarked)
Second: COc1cc(CC(=O)Nc2ccccc2N2CCOCC2)cc(OC)c1OC
The “hERG current change (%, negative = inhibition) at 1uM” value of the first is higher: 16.2% for the first, 7.5% for the second.

Compared with `O=C(COc1ccc(Cl)cc1Cl)N1CCN(C(=O)c2ccco2)CC1`, `Cc1occc1C(=O)N1CCN(Cc2ccccc2)CC1` is lower in “hERG current change (%, negative = inhibition) at 1uM” value: 15.1% for the first, -3.57% for the second.

Compared with `CC1CCN(S(=O)(=O)c2ccc(NC(=O)c3ccncc3)cc2)CC1`, `CC(=O)Nc1cccc(NC(=O)c2cccc(S(=O)(=O)N3CCN(Cc4ccccc4)CC3)c2)c1` is higher in “hERG current change (%, negative = inhibition) at 1uM” value: 9.75% for the first, 13.8% for the second.

First: CCCOP(=O)(c1ccc(N(C)C)cc1)C(O)c1ccncc1 (centres unmarked)
Second: COc1cccc(C(=O)NC(C)c2ccc(-c3ccccc3)cc2)c1OC (centres unmarked)
The “hERG current change (%, negative = inhibition) at 1uM” value of the first is lower: 6.3% for the first, 14.3% for the second.

First: COc1ccccc1CNC(=O)Cn1c(=O)oc2cc(S(=O)(=O)N3CCCC3)ccc21
Second: COc1ccc(CC(=O)Nc2cc(S(=O)(=O)N3CCCCC3)ccc2C)cc1OC
The “hERG current change (%, negative = inhibition) at 1uM” value of the first is lower: 7.23% for the first, 13.5% for the second.

First: c1ccc(-c2nnc(CSc3nc4ccccc4[nH]3)o2)cc1
Second: N=C1C(c2ccccc2)=C(O)CN1c1cccc2ccccc12
The “hERG current change (%, negative = inhibition) at 1uM” value of the first is lower: -14.2% for the first, 7.25% for the second.

Compared with `CN(c1cccc(NC(=O)CN(c2ccc(C34CC5CC(CC(C5)C3)C4)cc2)S(C)(=O)=O)c1)S(C)(=O)=O`, `COC(=O)c1c(NC(=O)c2ccc(N(C)S(=O)(=O)c3ccc(C)cc3)cc2)sc2c1CCCC2` is higher in “hERG current change (%, negative = inhibition) at 1uM” value: 11.1% for the first, 11.2% for the second.

Going from `CCOc1cc2c(cc1OCC)-n1cccc1C(c1c(O)cccc1OC)NC2.Cl` (centres unmarked) to `COc1ccc(CCN(C)c2ncnc3sccc23)cc1OC`, the “hERG current change (%, negative = inhibition) at 1uM” value rises from -2.28% to 13.8%.

Compared with `CC(=O)c1c(C)[nH]c(C(=O)OC(C)C(=O)Nc2cc(S(=O)(=O)N3CCCCC3)ccc2Cl)c1C` (centres unmarked), `COc1ccc(S(=O)(=O)NC(C)C(=O)N2CCCCCC2)cc1` (centres unmarked) is higher in “hERG current change (%, negative = inhibition) at 1uM” value: -9.02% for the first, 2.64% for the second.

First: CCCCn1c(SCC(=O)Nc2cc(C)on2)nnc1-c1cccs1
Second: Cn1c(SCC(=O)NCc2ccc3c(c2)OCO3)nnc1-c1c[nH]c2ccccc12
The “hERG current change (%, negative = inhibition) at 1uM” value of the first is higher: 0.964% for the first, -10.1% for the second.

Compared with `CC(=O)O.CC1=CC(C)C(/C=N/N=C(N)N)C(C)C1` (centres unmarked), `Cc1cccc(NC(=O)CSc2nnc([C@@H]3CCCN3C(=O)OC(C)(C)C)o2)c1C` is higher in “hERG current change (%, negative = inhibition) at 1uM” value: 4.96% for the first, 5.41% for the second.

Going from `CC(C)CN(C(=O)COC(=O)C12CC3CC(CC(Cl)(C3)C1)C2)c1c(N)n(Cc2ccccc2)c(=O)[nH]c1=O` to `CCOC(=O)C1(CCc2ccccc2)CCN(C2CCSCC2)CC1`, the “hERG current change (%, negative = inhibition) at 1uM” value falls from 12% to -80.7%.

First: Cc1ccccc1NC(=O)Nc1ccccn1
Second: O=C(OCc1cc2ccccc2[nH]c1=O)c1ccccn1
The “hERG current change (%, negative = inhibition) at 1uM” value of the first is higher: 17% for the first, 7.49% for the second.

Going from `Cc1cc2cc3c(cc2nc1SCC(=O)N1c2ccccc2CC1C)OCO3` (centres unmarked) to `O=C1C=C(c2ccc3ncccc3c2)C[C@@H](c2ccc3c(c2)OCO3)C1`, the “hERG current change (%, negative = inhibition) at 1uM” value rises from 5.76% to 9.3%.

Compared with `O=C(O)C1CCCCC1C(=O)Nc1cccc(Cl)c1Cl` (centres unmarked), `Cc1cccc(N2C(=O)C(Oc3ccc(Cl)cc3Cl)C2C(=O)O)c1C` (centres unmarked) is higher in “hERG current change (%, negative = inhibition) at 1uM” value: 12.3% for the first, 13.4% for the second.

Going from `COc1cc(NC(=O)c2ccc(N3CC4CC(C3)c3cccc(=O)n3C4)c(NC(=O)c3ccncc3)c2)cc(OC)c1OC` (centres unmarked) to `CCn1c(=O)n(CC)c2cc(N3CCCC3)c(NC(=O)c3cc(Br)ccc3OC)cc21`, the “hERG current change (%, negative = inhibition) at 1uM” value falls from 17.6% to 1.29%.

First: Cc1ccc(SCc2ccc(C(=O)Nc3cc([N+](=O)[O-])ccc3C)cc2)cc1
Second: COc1ccc(CN(C(=O)c2ccc(C)cc2)c2cccc(N)c2)cc1
The “hERG current change (%, negative = inhibition) at 1uM” value of the first is higher: 14.9% for the first, 7.6% for the second.

Going from `COCCn1c(SCC(=O)Nc2ccccc2)nc2c(oc3ccccc32)c1=O` to `CC(=O)c1cccc(NC(=O)CCn2c(=O)oc3ccccc32)c1`, the “hERG current change (%, negative = inhibition) at 1uM” value rises from -3.56% to 0.785%.

Compared with `CCC(COC)Oc1cc(NCc2ccccc2)c2ncn(C(C)C)c2c1` (centres unmarked), `CC(C)c1ccccc1NC(=O)COC(=O)CCN1C(=O)/C(=C\C=C\c2ccccc2)SC1=S` is higher in “hERG current change (%, negative = inhibition) at 1uM” value: 11.4% for the first, 14% for the second.

Compared with `CC(C)CNC(=O)C(=O)NCC1CCCN1S(=O)(=O)c1cccs1` (centres unmarked), `COc1cccc(CN(C)C(=O)c2ccccc2SCC(=O)N2CCCC2)c1` is lower in “hERG current change (%, negative = inhibition) at 1uM” value: 12% for the first, -2.07% for the second.

First: Cc1ccc(NS(=O)(=O)c2c(C)ccc3nsnc23)c([N+](=O)[O-])c1
Second: CS(=O)(=O)N1CCN(c2ccc([N+](=O)[O-])c(NCc3cccnc3)c2)CC1
The “hERG current change (%, negative = inhibition) at 1uM” value of the first is lower: 12.6% for the first, 13.7% for the second.

Going from `COc1ccc2c(c1OC)C(=O)N1C2SC[C@H]1C(=O)NCCC(C)C` (some centres unmarked) to `CCOC(=O)Cn1nc(C)c(NC(=O)COc2ccc(C)c(C)c2)c1C`, the “hERG current change (%, negative = inhibition) at 1uM” value rises from 9.05% to 11.8%.

First: O=C(CCC(=O)N1CCCC1)Nc1ccc([N+](=O)[O-])cc1
Second: Cc1cc(C(=O)Nc2ccc(N3CCCCC3)cc2)no1
The “hERG current change (%, negative = inhibition) at 1uM” value of the first is lower: 1.29% for the first, 13.4% for the second.

Compared with `Cc1ccc(N(C=NC#N)CC(=O)N2CCN(c3ccccc3)CC2)cc1`, `Cc1ccc(S(=O)(=O)c2c(CO)c(-c3ccccc3)nn2C)cc1` is higher in “hERG current change (%, negative = inhibition) at 1uM” value: -19.8% for the first, -2.57% for the second.

First: COc1ccc(-c2ccc3oc(-c4ccsc4)cc3c2)cc1
Second: CCOC(=O)c1oc2ccccc2c1NC(=O)COc1ccc(F)cc1
The “hERG current change (%, negative = inhibition) at 1uM” value of the first is higher: 20.8% for the first, 12.4% for the second.

First: CC(C)N1C(=O)N(c2ccccc2)C(C)(O)CC1(C)C (centres unmarked)
Second: CC1CC(=O)C2=C(C1)Nc1ncnn1C2c1ccccc1 (centres unmarked)
The “hERG current change (%, negative = inhibition) at 1uM” value of the first is lower: 4.66% for the first, 18% for the second.

First: Cc1ccc(S(=O)(=O)Cn2nnnc2C(C(C)C)N2CCSCC2)cc1 (centres unmarked)
Second: COc1ccc(N2CCN(Cc3nc4c(c(=O)n(C)c(=O)n4C)n3C(C)C(C)=O)CC2)cc1 (centres unmarked)
The “hERG current change (%, negative = inhibition) at 1uM” value of the first is higher: 5.51% for the first, -8.36% for the second.

First: O=C(c1ccco1)N(Cc1cccc(F)c1)C1CCS(=O)(=O)C1 (centres unmarked)
Second: O=C(NCC1CCCO1)c1cccc(NS(=O)(=O)c2ccc(Br)cc2)c1 (centres unmarked)
The “hERG current change (%, negative = inhibition) at 1uM” value of the first is lower: 10.4% for the first, 13% for the second.

Going from `CCCCc1noc(-c2c(-c3ccccc3Cl)noc2C)n1` to `Cn1c(=O)c2c(nc(SCCN3CCOCC3)n2Cc2ccccc2Cl)n(C)c1=O`, the “hERG current change (%, negative = inhibition) at 1uM” value falls from -1.51% to -8.97%.

Going from `CCNC(=S)NNC(=O)CCn1c2ccccc2c2ccccc21` to `CCC(=O)NC(=S)Nc1cccc(-c2nc3ncccc3o2)c1`, the “hERG current change (%, negative = inhibition) at 1uM” value rises from 4.69% to 19.8%.

Compared with `Cc1coc2cc3oc(=O)c(CCC(=O)NCc4ccccn4)c(C)c3cc12`, `S=C1SCN(Cc2ccccn2)CN1Cc1ccco1` is lower in “hERG current change (%, negative = inhibition) at 1uM” value: 9.61% for the first, 6.34% for the second.

Compared with `CC1=NN(C(C#N)c2ccc(F)cc2)C(C)(C)C1` (centres unmarked), `Cc1ccn(C(=O)c2ccc(NC(=O)CC(C)C)cc2)n1` is lower in “hERG current change (%, negative = inhibition) at 1uM” value: 5.53% for the first, 1.23% for the second.

Going from `Cn1c(O)c(/C=N/c2ccccn2)c(=O)n(C)c1=O` to `Cc1ccc2nc(SCC(=O)Nc3ncccn3)[nH]c2c1`, the “hERG current change (%, negative = inhibition) at 1uM” value falls from 11.1% to 9.56%.

Compared with `CCCCOc1ccc(Cc2cnc(N)nc2N)cc1`, `CCOc1ccc(CCNC(=O)Cc2nn[nH]n2)cc1OCC` is lower in “hERG current change (%, negative = inhibition) at 1uM” value: 12.5% for the first, 10.1% for the second.

Going from `CCN(Cc1ccccc1)C(=O)C1CCN(S(=O)(=O)c2ccc3c(c2)OCCO3)CC1` to `O=C1CC(C(=O)Nc2ccc(C(=O)N3CCOCC3)cc2)C2(CCCCC2)O1` (centres unmarked), the “hERG current change (%, negative = inhibition) at 1uM” value falls from 12.8% to 7.01%.

Going from `CC1(C)CC(=O)C2=C(C1)N(CCN1CCOCC1)C1=C(C(=O)CC(C)(C)C1)C2c1ccc(Cl)cc1` to `COCc1ccc(C(=O)N2CCCC(Nc3ccc(F)c(F)c3)C2)s1` (centres unmarked), the “hERG current change (%, negative = inhibition) at 1uM” value rises from -0.278% to 16.2%.

Going from `CCN(CC)CC#CCC(OC)(c1ccccc1)c1ccccc1.Cl` to `COC(=O)c1ccc(/C=C/C(=O)c2cccc(OC)c2)cc1`, the “hERG current change (%, negative = inhibition) at 1uM” value rises from 8.5% to 11.1%.

Compared with `O=S(=O)(Nc1nc(-c2sccc2Cl)cs1)c1cc(Cl)ccc1Cl`, `Cc1nc(NS(=O)(=O)c2ccc(Cl)s2)c2c3c(sc2n1)CCCC3` is lower in “hERG current change (%, negative = inhibition) at 1uM” value: 14.2% for the first, 9.59% for the second.

Compared with `CCCc1nn(C)c2c(=O)[nH]c(-c3cc(S(=O)(=O)N(CCO)CCO)ccc3OCC)nc12`, `CC12CC3(C)CC(C)(C1)CC(C(=O)NC(=S)N1CCCC1)(C2)C3` is higher in “hERG current change (%, negative = inhibition) at 1uM” value: 7.71% for the first, 14.4% for the second.

Source: paper PMC4336329 (PLoS ONE, 2015)
